Source: the BET-seq Pho4 binding data (Le et al. 2018)
Some of the results follow. These are noisy estimates, calculated here from bound and input reads.

Target: T1, Pho4 (S. cerevisiae) (UniProt P07270)
T1 sequence: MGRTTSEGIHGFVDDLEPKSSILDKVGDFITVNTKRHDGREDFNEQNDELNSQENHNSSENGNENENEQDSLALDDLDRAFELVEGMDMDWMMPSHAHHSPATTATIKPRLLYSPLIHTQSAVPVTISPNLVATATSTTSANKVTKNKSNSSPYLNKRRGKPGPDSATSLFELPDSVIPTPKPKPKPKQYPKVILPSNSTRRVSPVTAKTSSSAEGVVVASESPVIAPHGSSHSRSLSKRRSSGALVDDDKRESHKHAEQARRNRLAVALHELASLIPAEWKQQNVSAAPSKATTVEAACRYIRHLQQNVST
Experiment: relative binding free energy (BET-seq); higher = weaker binding
Settings: reference: library average

Sequence	relative binding free energy [kcal/mol]
GGGATCACGTGGCTAA	0.3
ATGGACACGTGGTTTC	0.05
GCTTTCACGTGAGTAT	0.48
AGGTTCACGTGCGGAT	0.17
TGTATCACGTGGTCCT	0.04
TTCTGCACGTGACGGG	0.17
ACAGTCACGTGGAGGG	-0.06
AACTTCACGTGTGGGG	0.13
TTTTCCACGTGTGTCT	0.04
TATCGCACGTGTGTAT	-0.01
GGGCACACGTGTTATA	0.18
GATTGCACGTGTATTA	0.24
TGATTCACGTGAGAAA	0.48
GGATACACGTGATGGA	0.29
TTTTCCACGTGGTAGT	0.04
TGGGACACGTGCTTAG	-0.1
GCTTTCACGTGTCATT	0.35
CGATACACGTGCTGGG	0.17
AGGTGCACGTGGTGTT	-0.15
AGCTACACGTGGTGAG	0.03
GGTATCACGTGGCAGG	0.05

Sequence	relative binding free energy [kcal/mol]
TCATACACGTGGGGGG	-0.01
GAGATCACGTGGGTGT	-0.06
CGTAGCACGTGGGTGG	-0.21
TTTGACACGTGATGTG	0.09
GTTTGCACGTGGTTTC	-0.02
GTAGGCACGTGTAAGT	-0.06
TCCTACACGTGGTGGG	0.05
TTTTCCACGTGTTGGC	0.3
GGTTACACGTGTTGGC	0.24
GTTGCCACGTGAGGAT	0.17
GGGTTCACGTGTCGTG	0.19
GTACTCACGTGTAGTT	0.31
TGGAGCACGTGGCGGT	-0.15
TTAGGCACGTGACTGG	-0.1
AGTATCACGTGGAAAG	0.26
TAATGCACGTGGCGAT	0.05
TTATGCACGTGTCGAG	-0.09
TGTGGCACGTGAAGTA	0.24
TCGGGCACGTGGCCTG	-0.12
TTTCACACGTGAGTAG	0.35
GGTGCCACGTGGTAAG	-0.02

Sequence	relative binding free energy [kcal/mol]
TGCTACACGTGGATGT	0.03
GTAAGCACGTGAAGTT	0.13
AATGGCACGTGCTGAG	-0.16
TTTAGCACGTGGATTT	-0.01
CATGTCACGTGGGTTA	-0.02
ACGGACACGTGTGTGG	-0.1
TTAACCACGTGTGGGG	0.04
GTTAGCACGTGTACGT	-0.04
AGTTTCACGTGGAAAA	0.23
TGTGGCACGTGATAAT	0.06
TTTATCACGTGAGAGG	0.27
ATATGCACGTGTAGTC	-0.03
AGTTTCACGTGAAATG	0.37
TTGTCCACGTGTGAGG	0.15
TGCTGCACGTGGCGCT	-0.11
AAGGGCACGTGTAAAT	0
TCGGTCACGTGGTGTA	-0.01
TGTCACACGTGGGTCG	-0.23
TAGTTCACGTGGCTCT	0.35
TGAAACACGTGGAGGC	0.06
GGGAGCACGTGGTCGA	-0.16
